Measurements reported in publication PMC4336329 (PLoS ONE, 2015).
The whole screen tested about 310,000 compounds, of which about 2,200 (0.71%) showed an effect of 50% or more. Effects have a minus sign here. This is one part of the list.

biological target: human ether-à-go-go-related gene (hERG) potassium channel (human, UniProt Q12809); experiment: primary screen, population patch clamp on CHO cells stably expressing hERG
Sequence (Q12809 whole entry, looked up): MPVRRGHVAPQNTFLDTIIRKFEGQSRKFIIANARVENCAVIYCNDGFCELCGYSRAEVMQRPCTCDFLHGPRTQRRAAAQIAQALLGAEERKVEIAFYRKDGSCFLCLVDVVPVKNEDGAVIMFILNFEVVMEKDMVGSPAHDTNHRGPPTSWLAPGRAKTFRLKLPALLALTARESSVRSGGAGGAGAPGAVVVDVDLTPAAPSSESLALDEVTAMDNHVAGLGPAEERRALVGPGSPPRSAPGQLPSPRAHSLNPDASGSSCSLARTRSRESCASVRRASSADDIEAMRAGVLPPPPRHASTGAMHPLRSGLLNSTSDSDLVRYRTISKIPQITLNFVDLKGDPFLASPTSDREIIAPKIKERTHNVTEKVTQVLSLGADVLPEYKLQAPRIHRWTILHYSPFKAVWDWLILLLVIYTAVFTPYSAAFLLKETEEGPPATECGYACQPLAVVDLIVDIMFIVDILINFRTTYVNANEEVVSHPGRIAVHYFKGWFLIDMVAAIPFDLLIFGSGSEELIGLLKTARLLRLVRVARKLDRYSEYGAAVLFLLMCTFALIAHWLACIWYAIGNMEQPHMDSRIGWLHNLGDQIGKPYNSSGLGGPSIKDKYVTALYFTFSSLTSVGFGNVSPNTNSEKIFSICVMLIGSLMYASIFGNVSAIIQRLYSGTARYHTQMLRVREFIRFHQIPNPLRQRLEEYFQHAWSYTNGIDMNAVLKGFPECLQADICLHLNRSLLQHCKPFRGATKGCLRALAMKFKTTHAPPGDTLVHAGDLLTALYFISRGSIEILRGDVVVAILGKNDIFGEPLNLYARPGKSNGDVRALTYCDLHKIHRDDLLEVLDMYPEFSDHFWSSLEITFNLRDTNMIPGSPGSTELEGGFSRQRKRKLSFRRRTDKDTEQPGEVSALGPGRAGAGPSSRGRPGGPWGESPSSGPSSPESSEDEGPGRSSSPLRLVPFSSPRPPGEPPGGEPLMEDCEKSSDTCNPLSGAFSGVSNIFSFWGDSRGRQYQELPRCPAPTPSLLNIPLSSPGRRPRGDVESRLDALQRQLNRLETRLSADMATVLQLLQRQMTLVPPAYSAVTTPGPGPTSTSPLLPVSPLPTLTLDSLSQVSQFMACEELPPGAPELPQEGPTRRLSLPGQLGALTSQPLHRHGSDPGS

| Compound | hERG current change (%, negative = inhibition) at 1uM [%] |
| --- | --- |
| CCOc1cc2[nH]c(=S)n(C3CCN(Cc4ccccc4)CC3)c(=O)c2cc1OCC | 10.3 |
| COCC(=O)Nc1sc2c(c1C(=O)OC)CCC(C)C2 (stereo not shown) | -3.89 |
| COc1ccc(-c2cn[nH]c2-c2ccc(OCC(=O)NN)cc2O)cc1OC | 13.7 |
| CCS(=O)(=O)c1ccc2oc(SCC(=O)Nc3ccc(OC)c(OC)c3)nc2c1 | 8.58 |
| CCOc1ccc(N=C2C(=O)Nc3ccc(C)c(Br)c32)cc1 | 13.6 |
| Cc1cccc(C(=O)NC2C(=O)NNC2c2ccc(Cl)cc2)c1 (stereo not shown) | 4.47 |
| O=C(Nc1ccccc1N1CCOCC1)c1cc2ccccc2o1 | 24.5 |
| NS(=O)(=O)c1ccc(CNS(=O)(=O)c2cc(Cl)ccc2Cl)cc1 | -0.878 |
| COc1ccc(C(=O)N2CC(=O)Nc3ccccc32)cc1S(=O)(=O)N1CCCC1 | 8.75 |
| O=[N+]([O-])c1cccc(NC(=S)N2CCCC2)c1 | 11.2 |
| COc1ccc(-n2nc([N+](=O)[O-])c(=NCCc3cccc(C)c3)n2O)cc1 | 8.36 |
| COc1cccc(C(=O)C2CCCN(C(=O)c3cccc(C#CC(C)(C)O)c3)C2)c1 (stereo not shown) | 5.38 |
| COc1cccc(-n2c(SCC(=O)NCC3CCCO3)nc3c([nH]c4ccccc43)c2=O)c1 (stereo not shown) | -3.17 |
| Cc1ccc(C(=O)N2CCN(S(=O)(=O)c3ccccc3)CC2)cc1 | 12 |
| CCOC(=O)N1CCC(NCCNC(=O)c2ccc(Cl)cc2)CC1 | -27.8 |
| CCN1CCc2c(sc(NC(=O)c3ccc(S(=O)(=O)N4CCCC4)cc3)c2C(=O)NC)C1 | 1.85 |
| CCOC(=O)C1=C(c2ccccc2)NC(=O)N(C(C)=O)C1c1cccc([N+](=O)[O-])c1 (stereo not shown) | 10.2 |
| CC(CN1C(C)CCCC1C)OC(=O)c1cccc(F)c1.Cl (stereo not shown) | 8.45 |
| O=C(/C=C/c1ccccc1Cl)Nc1ccccc1 | 3.15 |
| CCCCN(CC)C(=O)C1CCC(=O)N(c2ccc(OC)cc2)C1c1ccc(OC)c(OC)c1 (stereo not shown) | 8.74 |
| CC(C)(C)Nc1nc(N2CCCC2)nc(N2CCCC2)n1 | 8.38 |
| Cc1ccc(S(=O)(=O)N2CC(=NO)C2)cc1 | 4.06 |

| Compound | hERG current change (%, negative = inhibition) at 1uM [%] |
| --- | --- |
| O=C(NCc1cccc(C(F)(F)F)c1)C1CC(c2ccc(C(F)(F)F)cc2)=NO1 (stereo not shown) | 18.3 |
| COc1ccccc1/C=N/Nc1cc(C)nc2ccc(C)cc12 | 12.5 |
| Cc1ccc(-n2c(N)c(C(=O)Nc3ccccc3F)sc2=S)cc1C | 5.89 |
| CCC1=C(OC(=O)N(CC)CC)N2C(=O)OC(=NCCc3c[nH]c4ccccc34)[C@]2(C)[C@H]2C1=CC[C@H]1C(=O)NC(=O)[C@H]12 | 16.5 |
| CN(C)c1nc(Nn2cnnc2)nc(N(C)C)n1 | 14.7 |
| NC(=O)CSc1nc2sc(-c3ccccc3)cc2c(=O)n1N | 9.56 |
| Cc1cc(S(=O)(=O)Nc2nc(CN3CCOCC3)nc3sc4c(c23)CCCC4)ccc1F | 11.1 |
| Cc1ccc(OCCCC(=O)NC(C)c2ccccc2)c(C)c1 (stereo not shown) | -4.17 |
| CCCCN(C)C(=O)Cn1ncc2c3ccccc3n(CCC)c2c1=O | -1.29 |
| Cc1cc(C(=O)NCc2cc(C(=O)O)co2)co1 | 9.94 |
| COc1ccc(C(=O)COC(=O)c2nn(C)c(=O)c3ccccc23)c(OC)c1 | -4.01 |
| CCN(CC)S(=O)(=O)c1ccc(N2CCOCC2)c(NC(=O)c2cc(=O)[nH]c3ccccc23)c1 | 10.1 |
| Nc1nc(CSc2nc3ccccc3s2)nc(Nc2ccccc2)n1 | 13.4 |
| CCOc1ccc(S(=O)(=O)Nc2ccc(C(=O)NCC3(N4CCCCC4)CCCCC3)cc2)cc1 | -7.91 |
| COc1cccc(C2(O)CCSCC2CN(C)C)c1.Cl (stereo not shown) | 15.9 |
| COc1ccc(-c2nc3c(c(=O)[nH]c(=O)n3Cc3ccccc3)n2C)cc1 | 13.6 |
| Cc1ccccc1-c1cc2c(nn1)-c1ccccc1C2=O | 16.9 |
| Cc1ccc(-c2nc3cccnc3s2)cc1NS(C)(=O)=O | 8.04 |
| COc1ccc(OC)c(C(=O)NC(CC(N)=O)c2ccc(N3CCC(Cc4ccccc4)CC3)c([N+](=O)[O-])c2)c1 (stereo not shown) | 5.2 |
| O=C(c1ccc(COCC(F)(F)F)o1)N1CCCC1 | 21.3 |
| Cc1ccc(NC(=O)N2CCN(C(=O)C3CCCO3)CC2)cc1 (stereo not shown) | 16.5 |
| O=C(Nc1ccccc1C(=O)Nc1nnc(C(F)(F)F)s1)c1ccccc1Cl | 14.5 |

| Compound | hERG current change (%, negative = inhibition) at 1uM [%] |
| --- | --- |
| Cc1ccc(NC(=O)CCNS(=O)(=O)c2ccc3[nH]c(=O)oc3c2)cc1N(C)C | 13.4 |
| Cn1c(SCCOc2ccccc2Cl)nnc1-c1cccs1 | 5.91 |
| COc1cccc2cc(S(=O)(=O)c3ccc(C)cc3)/c(=N/NS(=O)(=O)c3ccc(C)cc3)oc12 | 1.59 |
| C[C@H]1CCC[C@H](O)CCCCCc2cc(O)cc(O)c2C(=O)O1 | -46.9 |
| Cc1ccc(-c2nnc(SCC(=O)NCCN3C(=O)CSC3=O)n2C)cc1 | 7.13 |
| Cn1ncc(Cl)c1C(=O)NCc1cc(C(C)(C)C)n[nH]1 | 15 |
| Cc1ccccc1C(=O)Nc1ccnn1C1CCN(Cc2ccc(CO)o2)CC1 | 1.49 |
| O=C(CCc1ccc(S(=O)(=O)NCCc2ccccc2)cc1)NCc1ccc2c(c1)OCO2 | 11.5 |
| Cc1ccc(Nc2ccc(C(=O)O)cc2N)cc1 | 8.99 |
| CCOc1ccccc1C(=O)NC1CC2CCCC(C1)N2Cc1nnnn1Cc1ccco1 (stereo not shown) | 13.8 |
| CCc1ccccc1NC(=O)CN(C)C(=O)Cn1cnc2ccc(Cl)cc2c1=O | 3.37 |
| COc1cccc(C(=O)NNS(=O)(=O)c2ccc(C)cc2)c1 | 13 |
| CC(=O)c1cccc(N(C(=O)c2ccco2)C(C(=O)NC2CCCC2)c2ccccc2F)c1 (stereo not shown) | 4.87 |
| COc1cccc(Nc2nc3ccccc3c(=O)[nH]2)c1 | 14.6 |
| CCOC(=O)CN1CCc2c(C)nc3c(-c4ccc(OC)c(OC)c4)cnn3c21 | -6.54 |
| O=C(NC1CCCC1)C(c1ccc(Cl)cc1)N1CCOCC1 (stereo not shown) | -0.429 |
| COc1ccc(-n2ccc(=O)c(C(=O)O)n2)c(OC)c1 | 7.94 |
| CCC1CCC(c2nnc(-c3ccc([N+](=O)[O-])cc3)o2)CC1 (stereo not shown) | 4.91 |
| CC1CC(C)CN(CC(O)COc2ccc3c(c2)CCC3)C1.Cl (stereo not shown) | -14.7 |
| COC(=O)C(COC(=O)c1c(F)cccc1F)NC(=O)c1c(F)cccc1F (stereo not shown) | 16.2 |
| O=S1(=O)N=C(N=Nc2c(O)[nH]c3ccccc23)c2ccccc21 | -1.95 |
| Cc1c(NC(=S)NC(=O)CC(C)C)c(=O)n(-c2ccccc2)n1C | 7.84 |

| Compound | hERG current change (%, negative = inhibition) at 1uM [%] |
| --- | --- |
| Cc1c(N=Cc2nc3ccccc3[nH]2)c(=O)n(-c2ccccc2)n1C | 7.88 |
| COc1ccccc1OCCC(=O)O | 14.1 |
| NC(=O)CC(NC(=O)Cc1cccc2ccccc12)c1ccc(N2CCN(c3ccccc3)CC2)c([N+](=O)[O-])c1 (stereo not shown) | 16.6 |
| COc1ccc2cc([C@@H](C)C(=O)[O-])ccc2c1.[Na+] | 2.48 |
| O=C(CN1CCN(c2ccc([N+](=O)[O-])cc2)CC1)Nc1ccccn1 | -75.8 |
| CCc1cccc(C)c1NC(=O)C1CCCN1C(=O)NCc1ccccc1 (stereo not shown) | 15.5 |
| NC(=S)N/N=C\c1c(OCc2ccccc2Cl)ccc2ccccc12 | 10.7 |
| CSc1nsc(SCC(=O)NC2CCCCC2)n1 | 13.1 |
| COCCNC(=O)/C(C#N)=C1\N=C(N)c2ccccc21 | 9.47 |
| COc1ccccc1C1CCN(Cc2ccccc2Cl)CC1 | 8.08 |
| CN1C(C(=O)NCc2ccco2)CC2Cn3c(nc4cc5ccccc5cc43)C21 (stereo not shown) | -0.0028 |
| Cc1ccc(NC(=O)c2ccccc2OCC(=O)c2ccccc2)cc1 | -1.66 |
| O=C(NCc1ccco1)c1cccc(Nc2nc3ccc(Br)cc3[nH]2)c1 | 16.6 |
| C=CCn1c(-c2ccc(=O)n(Cc3ccccc3)c2)n[nH]c1=S | 3.37 |
| Cc1oc(-c2ccccc2F)nc1CS(=O)CC(=O)NC1CCCC1 (stereo not shown) | 2.31 |
| COc1ccc2c(CSc3nc4nc(C)cc(C)n4n3)cc(=O)oc2c1 | 8.18 |
| CCOc1ccccc1NC(=O)NNC(=O)c1ccc2ccccc2c1 | 11.6 |
| COc1ccc(C(C)NC(=O)Cc2cccs2)cc1 (stereo not shown) | 12.4 |
| Cl.NCCc1nnc(SCc2c(F)cccc2Cl)o1 | 12.5 |
| COC(=O)Cc1ccc(NC(=S)Nc2ccccn2)cc1 | 7.65 |
| CC1(C(=O)NNC(=O)c2ccc(=O)oc2)CC1Br (stereo not shown) | 16.8 |
| Cc1ccc(/C=C/C(=O)Nc2nc3ccccc3[nH]2)cc1 | -4.16 |
